Laboratory results taken from PubChem BioAssay (NCATS).
Where “and” joins values, the source holds several entries; their conditions need not be identical. Equal values may be shown once. The inconclusive results got no clear call from the source; some entries with a clear call stand among them for comparison. A potency beside an inconclusive call is a rough fit, not a confirmed value. Calls of active or inactive are those of the source. Calls come from the whole dose curve; as a rule, active = well fitted inhibition curve with a large enough effect; inconclusive = small, poorly fitted or top-dose-only effect; inactive = no such curve, though single readings can be large or run the other way.

assay: Primary qHTS for small molecule stabilizers of the endoplasmic reticulum resident proteome: Secreted ER Calcium Modulated Protein (SERCaMP) assay (AID 1508630); settings: SH-SY5Y GLuc-SERCaMP (Gaussia luciferase released on ER calcium loss) secretion, thapsigargin, luminescence; activity change, negative = inhibition: at 38.4 µM (top of the series)
Text: Assay Provider: Brandon K. Harvey Ph.D.
National Institute on Drug Abuse, National Institutes of Health, Baltimore, MD
Endoplasmic reticulum (ER) dysregulation is associated with human pathologies including neurodegenerative, cardiovascular, muscular, and diabetic conditions. Maintenance of ER calcium is critical for functions of the ER and its depletion can lead to loss of ER resident proteins, in a process termed exodosis. Therapeutic compounds capable of attenuating the redistribution of ER proteins under pathological conditions may slow or stop disease progression. To identify such compounds, we performed a quantitative high-throughput screen (qHTS) using the SERCaMP assay, which monitors secretion of ER resident proteins triggered by calcium depletion.
SERCaMP was initially developed as a reporter of ER calcium homeostasis using a Gaussia luciferase with a modified signal peptide and carboxy-terminus (GLuc-SERCaMP), modifications that confer secretion of the reporter in response to ER calcium depletion (Henderson et al., 2014). The assay was used to screen 9,501 compounds, including a collection of drugs approved by the FDA (US), EMA (EU), NHI (Japan), and HC (Canada) regulatory agencies (Huang et al., 2011). Since the SERCaMP reporter reflects the exodosis phenomenon (Trychta et al., 2018a), compounds identified in the screen have the potential to prevent exodosis by different mechanisms such as stabilizing ER calcium or augmenting ERS retrieval.
1. Henderson, M.J., Wires, E.S., Trychta, K.A., Richie, C.T., and Harvey, B.K. (2014). SERCaMP: a carboxy-terminal protein modification that enables monitoring of ER calcium homeostasis. Mol Biol Cell 25, 2828-2839.
2. Huang, R., Southall, N., Wang, Y., Yasgar, A., Shinn, P., Jadhav, A., Nguyen, D.T., and Austin, C.P. (2011). The NCGC pharmaceutical collection: a comprehensive resource of clinically approved drugs enabling repurposing and chemical genomics. Sci Transl Med 3, 80ps16.
3. Trychta, K.A., Back, S., Henderson, M.J., and Harvey, B.K. (2018a). KDEL Receptors Are Differentially Regulated to Maintain the ER Proteome under Calcium Deficiency. Cell Rep 25, 1829-1840 e1826.
SEQUENCE No. (1, 2, 3, etc.); […] (e.g., Cells, Incubation, Reagent, etc.); VALUE and DESCRIPTION.
1; Reagent; 5 uL; 1000 SH-SY5Y cells per wells
3; Compound; 23 nL; Control inhibitor / compound library
5; Reagent; 100 nM; Thapsigargin
7; Reagent; 1 uL; 0.5x coelenterazine
8; Detection; Luminescence; ViewLux imaging system
NOTES (numbers refer to sequence above)
1; SH-SY5Y human neuroblastoma cells stably expressing GLuc-SERCaMP (SH-SY5Y-GLuc-ASARTDL) cells were seeded in 1,536 well white tissue culture treated plates (Corning, Cat# 7464) in DMEM-high glucose-sodium pyruvate (ThermoFisher Scientific, Cat #10569) supplemented with 10% bovine growth serum (Hyclone), 10 U/ml penicillin (Gibco), 10 ug/ml streptomycin (Gibco), and 20 mM HEPES.
2; Assay plates were incubated for 5 hour at 37C in a humidified incubator containing 5% CO2.
3; qHTS libraries (23 nl, final concentrations of 1.53 uM, 7.67 uM, 38.3 uM) or controls (neutral control: DMSO, positive control: dantrolene) were added using a Kalypsis pin-tool Robotic System equipped with 1536 pinheads.
4; Cells were then incubated for 16 hours at 37C, 5% CO2.
5; Thapsigargin was added at 100 nM to deplete ER calcium stores.
6; Cells were incubated for 4 hour (37 °C, 5% CO2)
7; Gaussia luciferase in the medium was measured by adding 1 ul of 0.5x coelenterazine (final concentration 0.07x) prepared in Gaussia Luciferase Glow Assay Buffer (Pierce), without addition of the Cell Lysis Buffer Reagent.
8; Luminescence was measured using a ViewLux […] CCD imaging system (Perkin Elmer) equipped with clear filters. […] The same controls were also used for the calculation of the Z' factor, a measure of assay quality control, as previously described (Zhang et al., 1999). […]
% is set by controls: 0 for no effect and ±100 for the full control effect; potency is the fitted concentration of half-maximal effect; tags give direction and shape of the fitted curve.

Structure (SMILES) | Potency | activity change, negative = inhibition
CCN(CC)CCCN(c1ccccc1)C1Cc2ccccc2C1 | inconclusive: 10 µM [inhibitor, partial curve, poor fit] and inconclusive: 28.2 µM [inhibitor, single point] | –
CCCCc1nc2cc(C=CC(=O)NO)ccc2n1CCN(CC)CC | inactive | –
NC(=O)NO | inconclusive: 31.6 µM [inhibitor, partial curve, poor fit] and inconclusive: 10.6 µM [inhibitor, single point] | –
CS(=O)(=O)c1ccc([C@@H](O)[C@@H](CO)NC(=O)C(Cl)Cl)cc1 | – | inconclusive: -37.2% [inhibitor]
O=C(c1ccc(C(=O)N2CCC(N3CCCC3)CC2)c(Nc2ccccc2)c1)N1CCC(N2CCCC2)CC1 | inactive | –
OC[C@@H](O)[C@H](O)[C@H](O)[C@@H](O)CO | inactive | –
O=C1[C@H]2CCCC[C@H]2C(=O)N1CCCCN1CCN(c2nsc3ccccc23)CC1 | inconclusive: 11.2 µM [inhibitor, single point] | –
Nc1ccc(C(=O)Nc2ccccc2N)cc1 | inactive | –
O=C(CCCN1CCN(c2ccc(F)cc2)CC1)NC1c2ccccc2CSc2ccccc21 (stereo not given) | inconclusive: 8.91 µM [inhibitor, partial curve, poor fit] | –
CCC(C)(C)C(=O)O[C@H]1C[C@@H](C)C=C2C=C[C@H](C)[C@H](CC[C@@H]3C[C@@H](O)CC(=O)O3)[C@H]21 | inactive | –
CCCCCCCCCCCCCCCCCC(=O)OCC(O)CO (stereo not given) | inconclusive: 10 µM [inhibitor, partial curve, poor fit] | –
COc1cc(NS(C)(=O)=O)ccc1Nc1c2ccccc2nc2ccccc12 | inactive | –
CC1(C)O[C@@H]2C[C@H]3[C@@H]4CCC5=CC(=O)CC[C@]5(C)[C@@]4(F)[C@@H](O)C[C@]3(C)[C@]2(C(=O)CCl)O1 | inconclusive: 17.8 µM [inhibitor, single point] | –
C=C(CC)C(=O)c1ccc(OCC(=O)O)c(Cl)c1Cl | inactive | –
CCOC(=O)[C@H]1O[C@H]1C(=O)N[C@@H](CC(C)C)C(=O)NCCC(C)C | inactive | –
O=C(c1ccc(OCCN2CCCCC2)cc1)c1c(-c2ccc(O)cc2)sc2cc(O)ccc12 | inconclusive: 14.1 µM [inhibitor, single point] and inconclusive: 8.91 µM [inhibitor, partial curve, poor fit] and inconclusive: 10 µM [inhibitor, single point] | –
CN(C)CC/C=C1\c2ccccc2Sc2ccc(Cl)cc21 | inconclusive: 14.1 µM [inhibitor, single point] | –
Nc1cccc2c1C(=O)N(C1CCC(=O)NC1=O)C2=O (stereo not given) | inactive | –
OCCN1CCN(CCCN2c3ccccc3Sc3ccc(Cl)cc32)CC1 | inconclusive: 25.1 µM [inhibitor, single point] | –
CC(C(=O)O)c1ccc2c(c1)CC(=O)c1ccccc1S2 (stereo not given) | inconclusive: 10 µM [inhibitor, partial curve, poor fit] | –

Structure (SMILES) | Potency | activity change, negative = inhibition
CC(C)C[C@H](NC(=O)[C@H](Cc1ccccc1)NC(=O)c1cnccn1)B(O)O | inactive | –
CCN(CC)C(=O)/C(C#N)=C/c1cc(O)c(O)c([N+](=O)[O-])c1 | inconclusive: 3.55 µM [inhibitor, full curve, poor fit] | –
CN1[C@@H]2CC[C@H]1CC(OC(=O)C(O)c1ccccc1)C2 (stereo not given in full) | inconclusive: 10 µM [inhibitor, single point] | –
CC(=O)Oc1cccc(C)c1 | inconclusive: 35.5 µM [inhibitor, partial curve] | –
CC(=O)Oc1c(C)c(C)c2c(c1C)CC[C@@](C)(CCC[C@H](C)CCC[C@H](C)CCCC(C)C)O2 | inconclusive: 25.1 µM [inhibitor, partial curve, poor fit] | –
CC12CC3CC(C)(C1)CC(N)(C3)C2 | inconclusive: 11.2 µM [inhibitor, partial curve, poor fit] and inconclusive: 10 µM [inhibitor, partial curve, poor fit] | –
O=C1O[C@H]([C@@H](O)CO)C(O)=C1O | inconclusive: 3.16 µM [inhibitor, full curve, poor fit] | –
COc1cc(OC)cc(OC)c1 | inconclusive: 3.16 µM [inhibitor, full curve, poor fit] | –
CCN1CCc2nc(N)oc2CC1 | inconclusive: 2.51 µM [inhibitor, full curve, poor fit] | –
CCc1cc2c(cc1N1CCC(N3CCOCC3)CC1)C(C)(C)c1[nH]c3cc(C#N)ccc3c1C2=O | inactive | –
Cc1nnc(SCC2=C(C(=O)O)N3C(=O)[C@@H](NC(=O)Cn4cnnn4)[C@H]3SC2)s1 | inconclusive: 31.6 µM [inhibitor, partial curve, poor fit] | –
CC/C(=C(\c1ccccc1)c1ccc(OCCN(C)C)cc1)c1ccccc1 | inconclusive: 8.91 µM [inhibitor, partial curve, poor fit] | –
Clc1ccc2c(c1)C(N1CCNCC1)=Nc1ccccc1O2 | inconclusive: 5.62 µM [inhibitor, partial curve, poor fit] | –
CC(CN(C)C)CN1c2ccccc2CCc2ccccc21 (stereo not given) | inconclusive: 28.2 µM [inhibitor, single point] | –
COC(=O)c1cccnc1 | inconclusive: 31.6 µM [inhibitor, partial curve, poor fit] | –
CC(=O)N(O)CCCCCNC(=O)CCC(=O)N(O)CCCCCNC(=O)CCC(=O)N(O)CCCCCN | inactive | –
COc1cc(F)c(C(C)C)cc1-c1ccc(C(F)(F)F)cc1CN1C(=O)O[C@H](c2cc(C(F)(F)F)cc(C(F)(F)F)c2)[C@@H]1C | inactive | –
O=C1OCCN1/N=C/c1ccc([N+](=O)[O-])o1 | inconclusive: 3.55 µM [inhibitor, full curve, poor fit] | –
CCN(CCCCOC(=O)c1ccc(OC)c(OC)c1)C(C)Cc1ccc(OC)cc1 (stereo not given) | inactive | –
COc1cc2c(Nc3ccc(Br)cc3F)ncnc2cc1OCC1CCN(C)CC1 | inconclusive: 31.6 µM [inhibitor, partial curve, poor fit] | –
